Among all 310,000 compounds or so, about 2,200 (0.71%) showed an effect of 50% or more. The effect is printed as a negative number. The list shows a part of the results.
What follows are compounds tested against human ether-à-go-go-related gene (hERG) potassium channel (human, UniProt Q12809) (assay: primary screen, population patch clamp on CHO cells stably expressing hERG).
human ether-à-go-go-related gene (hERG) potassium channel, sequence (Q12809 whole entry, looked up): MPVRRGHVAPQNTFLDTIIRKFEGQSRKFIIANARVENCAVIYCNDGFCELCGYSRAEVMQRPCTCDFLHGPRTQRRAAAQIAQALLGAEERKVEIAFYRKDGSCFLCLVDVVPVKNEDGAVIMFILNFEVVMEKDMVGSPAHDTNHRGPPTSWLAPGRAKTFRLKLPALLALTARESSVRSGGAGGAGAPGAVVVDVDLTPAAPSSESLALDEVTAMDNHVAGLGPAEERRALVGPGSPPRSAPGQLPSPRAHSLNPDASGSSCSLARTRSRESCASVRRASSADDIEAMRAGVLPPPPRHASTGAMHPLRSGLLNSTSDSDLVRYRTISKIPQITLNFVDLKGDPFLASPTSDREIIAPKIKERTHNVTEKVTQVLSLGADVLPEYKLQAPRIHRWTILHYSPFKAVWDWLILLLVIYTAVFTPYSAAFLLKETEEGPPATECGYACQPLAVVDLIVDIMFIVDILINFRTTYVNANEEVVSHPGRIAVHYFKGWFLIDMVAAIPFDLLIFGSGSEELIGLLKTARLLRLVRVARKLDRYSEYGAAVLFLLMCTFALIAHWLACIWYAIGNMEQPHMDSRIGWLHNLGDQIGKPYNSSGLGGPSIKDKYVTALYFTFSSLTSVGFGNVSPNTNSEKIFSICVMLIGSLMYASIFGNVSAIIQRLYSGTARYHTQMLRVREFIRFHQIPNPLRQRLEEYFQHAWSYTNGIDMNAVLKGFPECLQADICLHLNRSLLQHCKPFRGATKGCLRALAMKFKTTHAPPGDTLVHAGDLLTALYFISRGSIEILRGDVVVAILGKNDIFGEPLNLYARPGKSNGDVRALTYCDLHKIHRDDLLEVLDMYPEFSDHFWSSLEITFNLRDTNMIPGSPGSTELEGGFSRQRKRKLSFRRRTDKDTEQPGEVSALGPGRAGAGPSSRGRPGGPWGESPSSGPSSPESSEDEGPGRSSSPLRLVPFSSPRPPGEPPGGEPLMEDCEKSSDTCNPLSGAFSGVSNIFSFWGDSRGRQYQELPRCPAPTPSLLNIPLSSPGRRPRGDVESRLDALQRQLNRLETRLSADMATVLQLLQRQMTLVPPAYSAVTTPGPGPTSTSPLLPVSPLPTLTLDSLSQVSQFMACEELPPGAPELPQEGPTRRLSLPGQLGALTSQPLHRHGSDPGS

SMILES | hERG current change (%, negative = inhibition) at 1uM [%]
Cc1c(C)n(CCc2c[nH]c3ccccc23)ccc1=O | 9.51
O=c1cc(CSc2ccc(Cl)cc2)[nH]c2[nH]n(-c3ccccc3)c(=O)c12 | 12.9
COc1ccc(C(c2c(C)n(C)n(-c3ccccc3)c2=O)c2c(C)n(C)n(-c3ccccc3)c2=O)c(OC)c1OC | 22.4
CCOC(=O)NC(C)N1C(=O)C2C3C=CC(C3)C2C1=O (stereo not shown) | 9.96
NC(=O)c1cc2cc(Cc3ccccc3Cl)ccc2oc1=O | 1.33
COc1cc(-c2nn3c(C4CCCCC4)nnc3s2)cc(OC)c1OC | 5.33
CCCCOC(=O)C1=C(C)Nc2nnnn2C1c1ccccc1Cl (stereo not shown) | 12.6
COC(=O)c1ccc(/C=N/NS(=O)(=O)c2cc(C)ccc2C)cc1 | 4.33
CCOc1ncccc1C(=O)Nc1ccc(C)c(S(=O)(=O)N2CCCCCC2)c1 | 5.54
COc1ccc(N(CC(=O)NCc2ccco2)S(=O)(=O)c2c(C)nn(C)c2C)cc1 | 15.3
CCOc1ccc2c(c1)c(=O)c(S(=O)(=O)c1ccc(C)cc1)cn2CC | 7.16
COc1ccc(CCNC(=O)Cn2cnc3c(nnn3Cc3ccccc3F)c2=O)cc1OC | 7.09
Cc1nn(Cc2ccc(C(=O)N3CCN(C(=O)c4ccco4)CC3)o2)c(C)c1[N+](=O)[O-] | -1.07
Cc1cc(Cl)ccc1OCC(=O)Nc1nc(-c2cccs2)cs1 | 18.2
CCc1c(C)[nH]c2ccc(C)cc2c1=O | 20.9
CC(C)C(NC(=O)C1CCCCC1)C(=O)NC1CCCC(C)C1C (stereo not shown) | 15.2
Cc1c(Cl)cccc1N1CC(C)(C)C1=O | -11.7
O=C1NC(c2ccccn2)Nc2sc3c(c21)CCC3 (stereo not shown) | 8.58
COc1ccccc1NC(=O)CN(c1ccc(C)cc1)S(=O)(=O)c1c(C)n[nH]c1C | 8.89
FC(F)(F)c1cccc(OCCN2CCN(Cc3ccccc3)CC2)c1.O=C(O)C(=O)O | -3.24
Cc1ccc(CSc2cc(C)[nH]c(=O)n2)cc1 | 12
COc1ccc(OC)c(NC2=NC3(CCCC3)N=C(N)N2)c1 | 19.6

SMILES | hERG current change (%, negative = inhibition) at 1uM [%]
CCOc1ccc(NC(=O)NCCCSC2CCCCC2)cc1 | -0.541
COc1cccc(C(=O)NC(=S)N2CCN(c3ccc(C(F)(F)F)cc3[N+](=O)[O-])CC2)c1 | 11
CCC(C)NC(=O)Cn1c(=O)sc2ccccc21 (stereo not shown) | 10.9
O=C(c1cccs1)N1CCc2c([nH]c3ccccc23)C1c1ccc(Cl)cc1 (stereo not shown) | 7.24
Brc1ccccc1-n1nnc(-c2ccnc3ccccc23)n1 | 11.1
Cc1cnc([N+](=O)[O-])n1CCOC(=O)c1cccc(F)c1 | 12.5
O=C(NC1CCS(=O)(=O)C1)/C(=C/c1ccco1)NC(=O)c1ccccc1 (stereo not shown) | 2.96
Cc1ccnc(NC(=S)NC(=O)/C=C/c2ccc(Cl)cc2)c1 | -6.66
COc1cc(C2C3=C(CC(C)(C)CC3=O)N(C)C3=C2C(=O)CC(C)(C)C3)cc(Br)c1O | 13.8
O=C(c1ccc(N2CCCCS2(=O)=O)cc1)N1CCN(c2ccc(N3CCOCC3)nn2)CC1 | 15.9
Cc1ccc(NS(=O)(=O)c2ccc(C(=O)NCc3ccncc3)cc2)cc1 | 17.4
Cc1ccc(-n2c(SCC(=O)Nc3ccc(Cl)cc3)nc(O)cc2=O)cc1 | 7.52
Nc1cc2c(cc1O)CCCC2 | 16.1
CC1(C)NC(=O)N(CC(O)COc2ccccc2[N+](=O)[O-])C1=O (stereo not shown) | 13.4
O=C1CC(N2CCCCCC2)C(=O)N1c1ccc(F)cc1 (stereo not shown) | 18.5
O=S(=O)(Nc1nc2ccc(Cl)cc2s1)c1cccs1 | 16.9
COc1cc2cc(CCCOC(=O)c3ccc(Br)cc3)oc(=O)c2cc1OC | 11.4
O=C(OCCN1C(=O)c2ccccc2C1=O)c1cc(S(=O)(=O)N2CCOCC2)ccc1F | 14.5
CC/C(C)=N\Nc1nc(-c2cc3cc(OC)ccc3oc2=O)cs1 | 12.7
Cc1ccc(NS(=O)(=O)c2ccc3c(c2)NC(=O)CO3)cc1C | 14.5
O=C(NNc1nc2ccccc2s1)c1ccc(F)cc1 | 7.03
CCOC(=O)N1CCN(C(=O)CNC(=O)c2nn(-c3ccc(OC)c(OC)c3)c(=O)c3ccccc23)CC1 | 16.4

SMILES | hERG current change (%, negative = inhibition) at 1uM [%]
COc1ccccc1-n1c(SCC(=O)N2CCCCC2)nc2cccnc21 | 9.78
Cc1ccc(Cn2c(O)c(N=O)c3ccccc32)cc1 | 11.7
COc1ccc(/C=N\NC(=O)C2C(=O)NCC2c2ccccc2)cc1O (stereo not shown) | 11.1
Cc1ccn2c(=O)nc(SCC(=O)N3CCC(C)CC3)nc2c1 | 8.31
CCOC(=O)c1c(C)c(C(=O)NCc2ccco2)c(C)n1CC | 3.33
COc1ccc(CNC(=O)CN2CCC(n3nnc4cc(F)ccc43)CC2)cc1 | -43.4
CCn1c(C(C)NC(=O)c2ccc(C)cc2)n[nH]c1=S (stereo not shown) | 7.58
CC1(NC(=O)Nc2cccc3ccccc23)CCS(=O)(=O)C1 (stereo not shown) | 19.6
O=C(CCCNC(=O)c1ccc(Cl)cc1)OCc1cccc(Br)c1 | 11.2
O=C(COc1coc(CN2CCc3ccccc32)cc1=O)Nc1ccc([N+](=O)[O-])cc1 | 14.2
Cc1nn2cc(-c3ccc(N)cc3)nc2s1 | -12.2
O=c1c2c(ncn2C2CCCC2)n(Cc2ccccc2)c(=O)n1CCOc1ccc(Br)cc1 | 4.25
CCCc1cc(=O)[nH]c(SCc2cc(=O)oc3c(C)c(C)ccc23)n1 | 5.12
Cc1cnc(NC(=O)CSc2c(Cl)cccc2Cl)s1 | 10.5
COC(=O)c1ccc(NC(=O)Cn2nc(C)c3ccccc3c2=O)cc1 | 11.3
COc1ccc(S(=O)(=O)c2c(O)cc(C)c(NS(=O)(=O)c3ccccc3)c2C)cc1 | 16.8
O=C(Nc1ccc(Br)cc1)c1ccc(F)c(S(=O)(=O)NCc2cccs2)c1 | 11.7
CCOc1cc(/C=N/NC(=O)c2ccc(O)cc2)ccc1Oc1nc(Cl)ncc1F | -2.61
CN(C)CCCNC(=S)Nc1ccc(Oc2ccccc2)cc1 | 0.471
O=C(C[n+]1cnn(CC(=O)c2ccc(Cl)cc2Cl)c1)c1ccc([N+](=O)[O-])cc1.[Br-] | -35.6
COc1ccc2nc3c(cc2c1)c(NC(=O)C1CCCO1)nn3CC(C)C (stereo not shown) | 1.75
CCOC(=O)c1c(NC(=O)CSc2ncn[nH]2)sc(C)c1C | 5.42

SMILES | hERG current change (%, negative = inhibition) at 1uM [%]
COc1ccc([C@H]2CC(=O)C=C(c3cc(Cl)ccc3C)C2)cc1 | 12
S=C(NCCN1CCOCC1)Nc1ccccc1Cl | 13.5
Cc1cccc(NP(C)(=O)c2nc3c(s2)CCCC3)c1 (stereo not shown) | -2.39
O=C(N[C@@H](Cc1ccccc1)C(=O)OCc1ccccc1)c1nc[nH]c1C(=O)NC(c1ccccc1)c1ccccc1 | 16.8
O=C(NC1CCCC1)[C@@H]1CSC2c3ccccc3C(=O)N21 (stereo partly shown) | 13.4
COc1ccccc1C(=O)N/C(=C/c1ccco1)C(=O)Nc1cccc(C(=O)O)c1 | 0.909
COc1ccc2cc(C(=O)/C=C/c3cc(OC)c(O)c(OC)c3)ccc2c1 | 7.68
O=c1c2c3c(sc2n(CCN2CCCC2)c(=O)n1Cc1ccco1)CCCCC3 | -67
CN1C(=O)CC(C(=O)O)SC1=Nc1cccc(C(F)(F)F)c1 (stereo not shown) | 4.93
OCC1CCCC(n2cnc3c(=S)nc[nH]c32)O1 (stereo not shown) | 13.5
Cc1cc(CNC(=O)CC2C(=O)NCCN2Cc2ccccc2C(F)(F)F)nn1C (stereo not shown) | 12.8
CCOC(=O)c1sc(NC(=O)Cn2nnc3sc4c(c3c2=O)CCCC4)nc1C | 4.22
Cc1ccc(-c2cc(NC(=O)CCl)n(-c3ccccc3)n2)cc1 | -3.27
O=C(CSc1nnc(Cc2ccccc2)o1)c1cc(F)ccc1F | 12.7
Cn1cccc1/C=N/NC(=O)c1ccc[n+]([O-])c1 | 12.5
CCN(CC)C(=O)c1ccccc1NS(=O)(=O)c1ccc(OC)c(C(=O)N2CCOCC2)c1 | 10.3
CCOC(=O)C1(Cc2cccc(OC)c2)CCCN(C(=O)CSC)C1 (stereo not shown) | 4.79
O=C(O)CNC(=S)N(Cc1ccccc1)Cc1cccnc1 | 7.35
N#Cc1ccccc1NCC(=O)N1CCN(S(=O)(=O)c2ccccc2)CC1 | 7.24
O=C(NCc1ccc(F)cc1)C1CCCN1C(=O)Nc1cccc(F)c1 (stereo not shown) | 4.71
COc1ccc(NC(=O)C(C)N2CCN(C)CC2)cc1.O=C(O)C(=O)O (stereo not shown) | 5.43
O=C(NN1CCOCC1)c1ccc(Cl)cc1[N+](=O)[O-] | 12.8
